Out of some 310,000 compounds screened, about 2,200 (0.71%) showed an effect of 50% or more. Effects have a minus sign here. The list shows a part of the results.
Target: human ether-à-go-go-related gene (hERG) potassium channel (human, UniProt Q12809)
Assay: primary screen, population patch clamp on CHO cells stably expressing hERG

human ether-à-go-go-related gene (hERG) potassium channel, sequence (Q12809 whole entry, looked up): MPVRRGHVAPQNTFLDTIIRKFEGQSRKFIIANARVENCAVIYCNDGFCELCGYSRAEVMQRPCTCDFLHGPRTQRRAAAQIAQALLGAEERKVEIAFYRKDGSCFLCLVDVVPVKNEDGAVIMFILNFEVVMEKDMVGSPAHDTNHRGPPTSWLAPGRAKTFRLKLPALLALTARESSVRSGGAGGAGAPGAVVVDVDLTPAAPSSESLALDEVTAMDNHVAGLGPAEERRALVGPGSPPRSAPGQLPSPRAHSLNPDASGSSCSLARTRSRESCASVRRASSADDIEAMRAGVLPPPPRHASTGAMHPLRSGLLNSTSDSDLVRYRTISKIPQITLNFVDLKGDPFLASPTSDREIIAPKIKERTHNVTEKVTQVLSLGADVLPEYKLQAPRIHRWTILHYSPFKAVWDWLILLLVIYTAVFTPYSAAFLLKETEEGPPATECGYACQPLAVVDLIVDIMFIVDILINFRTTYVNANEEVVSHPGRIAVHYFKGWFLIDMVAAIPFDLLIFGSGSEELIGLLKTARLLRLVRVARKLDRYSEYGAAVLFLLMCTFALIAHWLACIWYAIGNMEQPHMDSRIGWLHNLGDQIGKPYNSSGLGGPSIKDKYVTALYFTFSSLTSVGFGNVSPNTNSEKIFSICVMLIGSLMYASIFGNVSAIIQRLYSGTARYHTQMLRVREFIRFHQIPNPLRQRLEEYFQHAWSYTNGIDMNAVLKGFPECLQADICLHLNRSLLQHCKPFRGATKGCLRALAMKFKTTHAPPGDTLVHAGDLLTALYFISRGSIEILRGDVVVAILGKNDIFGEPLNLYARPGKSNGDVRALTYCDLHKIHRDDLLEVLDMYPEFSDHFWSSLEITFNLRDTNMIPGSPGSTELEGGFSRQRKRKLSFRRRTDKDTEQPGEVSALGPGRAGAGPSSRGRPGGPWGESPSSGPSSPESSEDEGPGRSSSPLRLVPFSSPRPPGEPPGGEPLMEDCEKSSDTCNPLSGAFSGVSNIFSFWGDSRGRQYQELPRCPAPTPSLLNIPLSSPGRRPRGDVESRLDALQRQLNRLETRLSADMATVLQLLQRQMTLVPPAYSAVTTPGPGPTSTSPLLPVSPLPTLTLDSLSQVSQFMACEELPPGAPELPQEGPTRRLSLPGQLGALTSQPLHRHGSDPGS

SMILES	hERG current change (%, negative = inhibition) at 1uM
CN1CCN(NC(=O)CN2C(=O)/C(=C/c3ccccc3F)SC2=S)CC1	5.92%
Cl.N[C@@H](Cc1ccc(O)cc1)c1nnc([C@H](CCC(=O)O)NC(=O)C2CCNCC2)o1	9.57%
Cc1ccc(CNCC(=O)Nc2ccc(C)cc2Br)cc1	4.73%
CC(=O)N1CCN(C(=S)c2cccc([N+](=O)[O-])c2)CC1	4.82%
O=C(NNC(=O)c1ccc2ccccc2c1O)Nc1ccc(F)cc1	5.44%
CC(C)Cc1nnc(NC(=O)CC(C)c2ccccc2)s1 (stereo not drawn)	10.4%
CC(Sc1nnc(NC2CCCCC2)s1)C(=O)Nc1ccc2c(c1)C(=O)c1ccccc1C2=O (stereo not drawn)	-2.03%
O=C(c1cccs1)N(Cc1ccco1)C1CCS(=O)(=O)C1 (stereo not drawn)	6.29%
COC(=O)C1=C(c2ccc(Cl)c(C(F)(F)F)c2)C[C@@H]2CC[C@H]1N2C(=O)NCCCOC(C)C	4.82%
COc1ccc(OCc2cc(C(=O)N3CCCCCC3)no2)c(Cl)c1	10.8%
CCCCNCCOCCOc1ccc(Cl)cc1Br.O=C(O)C(=O)O	-6.21%
O=C(CC12CC3CC(CC(C3)C1)C2)Nc1ccc(C(=O)O)cc1	2.94%
CC(C)Cn1c(CCC(N)=O)nnc1SC(C)C(=O)Nc1ccc2c(c1)OCO2 (stereo not drawn)	12.1%
Cc1cc(=O)oc(C)c1C(=O)N1CCc2c([nH]c3ccccc23)C1C(C)C (stereo not drawn)	6.72%
CCCN1CCC(=NNc2ccc(S(=O)(=O)N3CCOCC3)cc2[N+](=O)[O-])CC1	-1.34%
Cc1ccc(OCCNC(=O)c2ccc(C)cc2)cc1	2.27%
O=C(N/N=C/c1ccc(O)cc1)c1ccncc1	14.9%
COc1cc(C(=O)NCc2nnc(SCC(=O)NCc3ccccc3)o2)cc(OC)c1OC	17.1%
CC(=O)c1c(C)n(C)c2ccc(OC(=O)c3ccc([N+](=O)[O-])cc3)cc12	13.2%
CN(C)c1ccc(/C=C2\CCCCC2=O)cc1	4.18%
CN(CC(=O)O)S(=O)(=O)c1ccc2c(c1)n(C)c(=O)c(=O)n2C	16.6%
CCCCN(C)CCNC(=O)c1cn(C)c(=O)c2c1c1ccccc1n2C	11.3%
O=C(O)C(=O)O.c1ccc2c(CCNC3CCCCC3)c[nH]c2c1	19.6%
COCCCN1C(=O)C(=O)/C(=C(/O)c2ccc(S(=O)(=O)N3CCOCC3)cc2)C1c1ccc(F)cc1 (stereo not drawn)	6.04%

Reference: PMC4336329 (PLoS ONE, 2015)
